According to the supplement of paper PMC8728848:
The list shows a part of the results.

What was measured:
Assay in all cases: glycan array binding signal (z-score within array); higher = stronger binding
Conditions in all cases: glycan notation: IUPAC condensed, linker removed
[1] = target: Fuc(a1-2)[Gal(a1-3)]Gal(b1-4)GlcNAc(b1-2)Man
Outline: (§1)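 Arrays were curated from the Consortium for Functional Glycomics database, 3228 in total, and kept only where the protein sequence was available. Binding is expressed as a within-array Z-score. This score was averaged across arrays of the same protein sequence at different concentrations or buffers and across linkers, and negative values can be read as non-binding.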

[2] = target: Fuc(a1-2)[Gal(a1-3)]Gal(b1-4)GlcNAc(b1-2)Man(a1-3)[Fuc(a1-2)[Gal(a1-3)]Gal(b1-4)GlcNAc(b1-2)Man(a1-6)]Man(b1-4)GlcNAc(b1-4)GlcNAc
Outline: as §1

[3] = target: Fuc(a1-2)[Gal(a1-3)]Gal(b1-4)GlcNAc(b1-2)Man(a1-3)[Fuc(a1-2)[Gal(a1-3)]Gal(b1-4)GlcNAc(b1-2)Man(a1-6)]Man(b1-4)GlcNAc(b1-4)[Fuc(a1-6)]GlcNAc
Outline: as §1

[4] = target: Fuc(a1-2)[Gal(a1-3)]Gal(b1-4)GlcNAc(b1-3)GalNAc
Outline: as §1

[5] = target: Fuc(a1-2)[Gal(a1-3)]Gal(b1-4)GlcNAc(b1-3)[Fuc(a1-2)[Gal(a1-3)]Gal(b1-4)GlcNAc(b1-6)]GalNAc
Outline: as §1

[6] = target: Fuc(a1-2)[Gal(a1-3)]Gal(b1-4)GlcNAc(b1-6)GalNAc
Outline: as §1

[7] = target: Fuc(a1-2)[Gal(a1-3)]Gal(b1-4)[Fuc(a1-3)]Glc
Outline: as §1

[8] = target: Fuc(a1-2)[Gal(a1-3)]Gal(b1-4)[Fuc(a1-3)]GlcNAc
Outline: as §1

[9] = target: Fuc(a1-2)[Gal(a1-3)]Gal(b1-4)[Fuc(a1-3)]GlcNAc(b1-3)GalNAc
Outline: as §1

[10] = target: Fuc(a1-2)[Gal(a1-4)]Gal(b1-4)GlcNAc
Outline: as §1

[11] = target: Fuc(a1-2)[GalNAc(a1-3)]Gal
Outline: as §1

[12] = target: Fuc(a1-2)[GalNAc(a1-3)]Gal(b1-3)GalNAc(a1-3)[Fuc(a1-2)]Gal(b1-4)GlcNAc
Outline: as §1

[13] = target: Fuc(a1-2)[GalNAc(a1-3)]Gal(b1-3)GalNAc(b1-3)Gal(a1-4)Gal(b1-4)Glc
Outline: as §1

[14] = target: Fuc(a1-2)[GalNAc(a1-3)]Gal(b1-3)GlcNAc
Outline: as §1

[15] = target: Fuc(a1-2)[GalNAc(a1-3)]Gal(b1-3)GlcNAc(b1-2)Man(a1-3)[Fuc(a1-2)[GalNAc(a1-3)]Gal(b1-3)GlcNAc(b1-2)Man(a1-6)]Man(b1-4)GlcNAc(b1-4)GlcNAc
Outline: as §1

[16] = target: Fuc(a1-2)[GalNAc(a1-3)]Gal(b1-3)GlcNAc(b1-2)Man(a1-3)[Fuc(a1-2)[GalNAc(a1-3)]Gal(b1-3)GlcNAc(b1-2)Man(a1-6)]Man(b1-4)GlcNAc(b1-4)[Fuc(a1-6)]GlcNAc
Outline: as §1

[17] = target: Fuc(a1-2)[GalNAc(a1-3)]Gal(b1-3)GlcNAc(b1-3)GalNAc
Outline: as §1

[18] = target: Fuc(a1-2)[GalNAc(a1-3)]Gal(b1-3)GlcNAc(b1-6)GalNAc
Outline: as §1

[19] = target: Fuc(a1-2)[GalNAc(a1-3)]Gal(b1-4)Glc
Outline: as §1

[20] = target: Fuc(a1-2)[GalNAc(a1-3)]Gal(b1-4)GlcNAc
Outline: as §1

[21] = target: Fuc(a1-2)[GalNAc(a1-3)]Gal(b1-4)GlcNAc(b1-2)Man
Outline: as §1

[22] = target: Fuc(a1-2)[GalNAc(a1-3)]Gal(b1-4)GlcNAc(b1-2)Man(a1-3)[Fuc(a1-2)[GalNAc(a1-3)]Gal(b1-4)GlcNAc(b1-2)Man(a1-6)]Man(b1-4)GlcNAc(b1-4)GlcNAc
Outline: as §1

[23] = target: Fuc(a1-2)[GalNAc(a1-3)]Gal(b1-4)GlcNAc(b1-2)Man(a1-3)[Fuc(a1-2)[GalNAc(a1-3)]Gal(b1-4)GlcNAc(b1-2)Man(a1-6)]Man(b1-4)GlcNAc(b1-4)[Fuc(a1-6)]GlcNAc
Outline: as §1

[24] = target: Fuc(a1-2)[GalNAc(a1-3)]Gal(b1-4)GlcNAc(b1-3)Gal(b1-4)GlcNAc
Outline: as §1

[25] = target: Fuc(a1-2)[GalNAc(a1-3)]Gal(b1-4)GlcNAc(b1-3)Gal(b1-4)GlcNAc(b1-3)Gal(b1-4)GlcNAc
Outline: as §1

[26] = target: Fuc(a1-2)[GalNAc(a1-3)]Gal(b1-4)GlcNAc(b1-3)GalNAc
Outline: as §1

[27] = target: Fuc(a1-2)[GalNAc(a1-3)]Gal(b1-4)GlcNAc(b1-3)[Fuc(a1-2)[GalNAc(a1-3)]Gal(b1-4)GlcNAc(b1-6)]GalNAc
Outline: as §1

[28] = target: Fuc(a1-2)[GalNAc(a1-3)]Gal(b1-4)GlcNAc(b1-6)GalNAc
Outline: as §1

[29] = target: Fuc(a1-2)[GalNAc(a1-3)]Gal(b1-4)[Fuc(a1-3)]GlcNAc
Outline: as §1

[30] = target: Fuc(a1-2)[GalNAc(a1-3)]Gal(b1-4)[Fuc(a1-3)]GlcNAc(b1-3)GalNAc
Outline: as §1

[31] = target: Fuc(a1-2)[GalNAc(a1-4)]Gal(b1-4)GlcNAc
Outline: as §1

[32] = target: Fuc(a1-2)[GalNAc(b1-3)]Gal
Outline: as §1

[33] = target: Fuc(a1-3)GlcNAc
Outline: as §1

[34] = target: Fuc(a1-3)[Gal(b1-4)]Glc6S
Outline: as §1

[35] = target: Fuc(a1-3)[Gal(b1-4)]GlcNAc
Outline: as §1

[36] = target: Fuc(a1-3)[Gal(b1-4)]GlcNAc(b1-2)Man
Outline: as §1

[37] = target: Fuc(a1-3)[Gal(b1-4)]GlcNAc(b1-2)Man(a1-3)[Fuc(a1-3)[Gal(b1-4)]GlcNAc(b1-2)Man(a1-6)]Man(b1-4)GlcNAc(b1-4)GlcNAc
Outline: as §1

B1: UDA (Urtica dioica), P11218 (protein)
chain: MMMRFLSAVVIMSSAMAVGLVSAQRCGSQGGGGTCPALWCCSIWGWCGDSEPYCGRTCENKCWSGERSDHRCGAAVGNPPCGQDRCCSVHGWCGGGNDYCSGSKCQYRCSSSVRGPRVALSGNSTANSIGNVVVTEPLFDQMFSHRKDCPSQGFYSYHSFLVAAESFPAFGTIGDVATRKREVAAFLAHISQATSGERSDVENPHAWGLCHINTTTVTENDFCTSSDWPCAAGKKYSPRGPIQLTHNFNYGLAGQAIGEDLIQNPDLVEKDPIISFKTALWFWMSQHDNKPSCHDIVLNANSAANRIPNKGVIGNIISRAFGHDDFAVRSSSIGFYKRYCDMLGVSYGHDLKYWFDNTPSSEFQRIQMRVAA
[1]
  glycan array binding signal (z-score): -0.179
[2]
  glycan array binding signal (z-score): -0.157
[3]
  glycan array binding signal (z-score): -0.165
[4]
  glycan array binding signal (z-score): -0.178
[5]
  glycan array binding signal (z-score): -0.178
[6]
  glycan array binding signal (z-score): -0.184
[7]
  glycan array binding signal (z-score): -0.166
[8]
  glycan array binding signal (z-score): -0.169
[9]
  glycan array binding signal (z-score): -0.172
[10]
  glycan array binding signal (z-score): -0.178
[11]
  glycan array binding signal (z-score): -0.183
[12]
  glycan array binding signal (z-score): -0.174
[13]
  glycan array binding signal (z-score): -0.183
[14]
  glycan array binding signal (z-score): -0.172
[15]
  glycan array binding signal (z-score): -0.167
[16]
  glycan array binding signal (z-score): -0.153
[17]
  glycan array binding signal (z-score): -0.176
[18]
  glycan array binding signal (z-score): -0.178
[19]
  glycan array binding signal (z-score): -0.172
[20]
  glycan array binding signal (z-score): -0.131
[21]
  glycan array binding signal (z-score): -0.177
[22]
  glycan array binding signal (z-score): -0.165
[23]
  glycan array binding signal (z-score): -0.178
[24]
  glycan array binding signal (z-score): -0.054
[25]
  glycan array binding signal (z-score): 0.024
[26]
  glycan array binding signal (z-score): -0.173
[27]
  glycan array binding signal (z-score): -0.18
[28]
  glycan array binding signal (z-score): -0.177
[29]
  glycan array binding signal (z-score): -0.157
[30]
  glycan array binding signal (z-score): -0.158
[31]
  glycan array binding signal (z-score): 0.081
[32]
  glycan array binding signal (z-score): -0.189
[33]
  glycan array binding signal (z-score): -0.189
[34]
  glycan array binding signal (z-score): -0.169
[35]
  glycan array binding signal (z-score): -0.187
[36]
  glycan array binding signal (z-score): -0.181
[37]
  glycan array binding signal (z-score): -0.165
